Assay results from the supplement of paper PMC12217912.
This is one part of the list. Sequences were assembled here from the parent chain. Inactive controls read about 0.05.

B1: TEV protease; numbered along this chain (parent)
chain: MGESLFKGPRDYNPISSSICHLTNESDGHTTSLYGIGFGPFIITNKHLFRRNNGTLVVQSLHGVFKVKDTTTLQQHLVDGRDMIIIRMPKDFPPFPQKLKFREPQREERICLVTTNFQTKSMSSMVSDTSCTFPSGDGIFWKHWIQTKDGQCGSPLVSTRDGFIVGIHSASNFTNTNNYFTSVPKNFMELLTNQEAQQWVSGWRLNADSVLWGGHKVFMVKPEEPFQPVKEATQL

Variants of: B1
Assay: raw area under fraction-flipped curve 0-4 h after induction (AUC4h, not background-subtracted), DNA-recorder readout of cleavage of the substrate (dimensionless); higher = more cleavage of the substrate by the protease variant
Conditions: temperature: 34 °C; time window: 0-4 h after rhamnose induction
Protocol: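 In vivo DNA recorder in E. coli TOP10(DE3) ΔrhaA at 34 °C. Each TEVp single-site mutant (parent TEVp 0) is paired with a single-site variant of the 7-mer TEVs (canonical ENLYFQ|S). The substrate sits between flexible linkers in a Bxb1-sfGFP-TEVs-SsrA fusion, so cleavage stabilises Bxb1 and speeds flipping of a recombination array, read by NGS. The value is the raw area under the fraction-flipped curve over 0-4 h after rhamnose induction (AUC4h), with ≥20 reads per time point. It is not background-subtracted; inactive controls average about 0.047.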
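Further: Bxb1 expression induced with 0.2% (w/v) L-rhamnose at OD600 near 0.5, cultures sampled hourly, flipped fraction per protease–substrate barcode pair counted by paired-end Illumina sequencing.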

| Variant | area with substrate CNLYFQS | area with substrate DNLYFQS | area with substrate GNLYFQS | area with substrate HNLYFQS | area with substrate INLYFQS | area with substrate KNLYFQS | area with substrate LNLYFQS | area with substrate MNLYFQS | area with substrate PNLYFQS | area with substrate SNLYFQS | area with substrate TNLYFQS | area with substrate WNLYFQS | area with substrate YNLYFQS | area with substrate FNLYFQS | area with substrate NNLYFQS | area with substrate VNLYFQS | area with substrate QNLYFQS | area with substrate RNLYFQS |
| --- | --- | --- | --- | --- | --- | --- | --- | --- | --- | --- | --- | --- | --- | --- | --- | --- | --- | --- |
| F38I | 0.0788 | 0.0679 | 0.0708 | 0.0605 | 0.0541 | 0.0284 | 0.0576 | 0.0434 | 0.0623 | 0.0615 | 0.0665 | 0.0607 | 0.0582 |  |  |  |  |  |
| F38W | 0.0661 | 0.119 | 0.103 | 0.0658 | 0.0784 | 0.0496 | 0.0665 | 0.0672 | 0.0587 | 0.0401 | 0.0751 | 0.0474 |  | 0.0679 | 0.0504 | 0.0649 |  |  |
| F38C | 0.0738 | 0.076 | 0.0611 | 0.0609 |  | 0.0549 |  |  |  |  | 0.0424 | 0.0542 | 0.0566 | 0.0548 |  |  | 0.0602 | 0.0528 |
| F38Y | 0.0802 | 0.0856 | 0.0692 | 0.0662 | 0.0426 | 0.0612 | 0.0687 |  | 0.071 | 0.0603 | 0.0676 | 0.0566 | 0.077 |  | 0.0792 | 0.0653 |  |  |
| T31A | 0.0711 | 0.0938 | 0.0538 | 0.0645 | 0.0607 |  |  |  | 0.0765 | 0.0628 | 0.0824 | 0.0474 |  | 0.054 |  |  |  |  |
| L33M | 0.0458 | 0.0521 | 0.0592 | 0.0631 | 0.0397 | 0.0699 | 0.0626 | 0.0311 |  | 0.128 | 0.0604 | 0.0605 | 0.0669 | 0.0517 | 0.0587 | 0.0552 |  |  |
| L33I | 0.061 | 0.0655 | 0.0559 | 0.0488 | 0.0658 |  |  |  | 0.0645 | 0.0663 | 0.063 | 0.0613 |  | 0.068 |  |  |  |  |
| D27W | 0.0538 | 0.0568 | 0.0483 | 0.06 | 0.0629 | 0.0696 | 0.0652 | 0.0606 | 0.0653 |  | 0.0572 | 0.0448 | 0.0615 | 0.053 | 0.062 |  |  |  |
| D27C | 0.0672 | 0.066 | 0.0603 | 0.0632 | 0.0621 | 0.0909 | 0.0737 |  | 0.0613 | 0.0526 | 0.0639 | 0.0585 |  | 0.0555 | 0.0632 | 0.0583 |  |  |
| K46C | 0.0649 | 0.075 | 0.0583 | 0.0543 | 0.0616 | 0.0619 | 0.0552 | 0.0806 | 0.0523 | 0.0649 | 0.0519 | 0.0561 | 0.0566 |  | 0.081 | 0.0712 |  |  |
| K46T | 0.0503 | 0.0664 | 0.0589 | 0.0555 | 0.0513 | 0.0681 | 0.0534 | 0.0692 | 0.0654 | 0.0604 |  | 0.0567 | 0.0519 | 0.0602 | 0.0525 | 0.0526 |  |  |
| K46M | 0.0557 | 0.0524 | 0.0544 | 0.0703 | 0.0649 | 0.0589 | 0.054 | 0.0619 | 0.0523 |  |  | 0.0487 | 0.0719 | 0.0493 | 0.0628 | 0.0315 |  |  |
| K46A | 0.063 | 0.0671 | 0.0719 | 0.0664 | 0.0572 | 0.0711 | 0.0773 | 0.0753 | 0.114 | 0.0618 | 0.12 | 0.0726 | 0.0722 | 0.0807 | 0.0724 | 0.093 | 0.062 |  |
| I43N | 0.0509 | 0.0439 | 0.0397 | 0.0501 |  | 0.0547 | 0.0479 | 0.0548 | 0.0529 | 0.0532 | 0.061 | 0.0349 |  | 0.0433 | 0.0317 | 0.0402 | 0.0418 | 0.0573 |
| I43E | 0.0431 | 0.0461 | 0.0493 | 0.0544 |  | 0.0599 | 0.051 | 0.0524 | 0.0437 | 0.0382 | 0.0382 | 0.0437 | 0.0424 | 0.0428 |  | 0.0497 |  | 0.0529 |
| I43A | 0.0509 | 0.047 | 0.066 | 0.0554 | 0.0605 | 0.0546 |  | 0.0542 | 0.069 | 0.0365 | 0.06 | 0.0385 |  | 0.0512 |  | 0.0639 |  |  |
| I43L | 0.0828 | 0.0698 | 0.0764 | 0.0582 | 0.0603 | 0.0715 |  | 0.0538 | 0.0612 |  | 0.0577 | 0.0582 | 0.0584 | 0.0728 |  | 0.0625 |  |  |
| I43Q | 0.0391 | 0.0621 | 0.0533 | 0.0478 | 0.0306 |  | 0.0486 | 0.0347 | 0.0439 | 0.0476 | 0.0526 | 0.0428 | 0.057 | 0.0415 | 0.0337 |  | 0.0472 |  |
| I43S | 0.0411 | 0.0609 | 0.0436 | 0.0551 | 0.0467 | 0.0571 |  | 0.0364 | 0.0475 | 0.0551 | 0.049 | 0.048 | 0.0387 | 0.0266 | 0.0404 | 0.0566 |  | 0.0268 |
| F41I | 0.0664 | 0.0726 | 0.0713 | 0.0673 | 0.0547 | 0.0639 | 0.0653 | 0.0539 | 0.0522 | 0.0595 | 0.0651 | 0.0525 | 0.0571 | 0.0633 | 0.0651 |  |  |  |
| H47E | 0.0574 | 0.055 | 0.0579 | 0.0456 | 0.0604 | 0.0569 |  | 0.0615 | 0.0658 | 0.062 | 0.0564 | 0.0616 | 0.0586 | 0.0682 | 0.0569 |  |  |  |
| H47C | 0.0574 | 0.0467 | 0.0583 |  | 0.0584 | 0.0693 | 0.062 |  | 0.0408 | 0.0484 | 0.0502 |  |  | 0.05 |  | 0.0431 |  |  |
| T44S | 0.0599 | 0.0771 | 0.061 | 0.0668 | 0.0574 | 0.0596 | 0.069 | 0.101 | 0.0586 | 0.0597 | 0.0605 | 0.0445 | 0.0525 | 0.0668 | 0.0687 | 0.0636 |  |  |
| T44P | 0.0331 | 0.0495 | 0.0651 |  | 0.0526 |  | 0.0215 |  | 0.0469 |  | 0.0487 | 0.0654 | 0.0266 | 0.0415 |  |  |  |  |
| T30L | 0.0752 | 0.0701 | 0.0657 | 0.0897 | 0.0646 | 0.0626 |  | 0.0629 | 0.0794 |  | 0.0734 | 0.059 | 0.0621 |  |  | 0.0705 | 0.0748 |  |
